The assay addresses rodent Aβ42 (Mus musculus; Rattus norvegicus). Description: cell-based or functional assay.

anti-rodent Aβ monoclonal antibody m3.2: the post-tetanic potentiation (PTP) in the presence of D-APV, m3.2 mAbs 2 µg/ml (% of PTP compared to vehicle) worked out at 71.
